Laboratory results taken from article PMC11624280.
Results are given in words; binding and its absence hold for the method and conditions named. Binding seen in cells or lysates may run through a third protein. Some results given as binding are weak or reduced against the parent protein; the word gives no strength. Where a sequence is shown, tags or fusion partners need not be part of it.

Sequences of proteins named here, by UniProt entry; tags and fusion partners are left off.
UniProt Q5SQI0: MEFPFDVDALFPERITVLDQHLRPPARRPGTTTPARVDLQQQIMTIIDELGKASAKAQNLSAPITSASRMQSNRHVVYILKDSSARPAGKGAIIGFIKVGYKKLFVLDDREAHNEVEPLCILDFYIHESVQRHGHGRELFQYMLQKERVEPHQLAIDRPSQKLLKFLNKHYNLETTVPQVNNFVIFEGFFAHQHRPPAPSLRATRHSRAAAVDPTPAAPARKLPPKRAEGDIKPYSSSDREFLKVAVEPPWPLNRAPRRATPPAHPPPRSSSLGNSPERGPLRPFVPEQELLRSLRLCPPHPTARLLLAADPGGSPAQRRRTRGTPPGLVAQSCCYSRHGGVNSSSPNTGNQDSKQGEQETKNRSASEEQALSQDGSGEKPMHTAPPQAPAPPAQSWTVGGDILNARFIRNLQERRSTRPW
UniProt Q09472: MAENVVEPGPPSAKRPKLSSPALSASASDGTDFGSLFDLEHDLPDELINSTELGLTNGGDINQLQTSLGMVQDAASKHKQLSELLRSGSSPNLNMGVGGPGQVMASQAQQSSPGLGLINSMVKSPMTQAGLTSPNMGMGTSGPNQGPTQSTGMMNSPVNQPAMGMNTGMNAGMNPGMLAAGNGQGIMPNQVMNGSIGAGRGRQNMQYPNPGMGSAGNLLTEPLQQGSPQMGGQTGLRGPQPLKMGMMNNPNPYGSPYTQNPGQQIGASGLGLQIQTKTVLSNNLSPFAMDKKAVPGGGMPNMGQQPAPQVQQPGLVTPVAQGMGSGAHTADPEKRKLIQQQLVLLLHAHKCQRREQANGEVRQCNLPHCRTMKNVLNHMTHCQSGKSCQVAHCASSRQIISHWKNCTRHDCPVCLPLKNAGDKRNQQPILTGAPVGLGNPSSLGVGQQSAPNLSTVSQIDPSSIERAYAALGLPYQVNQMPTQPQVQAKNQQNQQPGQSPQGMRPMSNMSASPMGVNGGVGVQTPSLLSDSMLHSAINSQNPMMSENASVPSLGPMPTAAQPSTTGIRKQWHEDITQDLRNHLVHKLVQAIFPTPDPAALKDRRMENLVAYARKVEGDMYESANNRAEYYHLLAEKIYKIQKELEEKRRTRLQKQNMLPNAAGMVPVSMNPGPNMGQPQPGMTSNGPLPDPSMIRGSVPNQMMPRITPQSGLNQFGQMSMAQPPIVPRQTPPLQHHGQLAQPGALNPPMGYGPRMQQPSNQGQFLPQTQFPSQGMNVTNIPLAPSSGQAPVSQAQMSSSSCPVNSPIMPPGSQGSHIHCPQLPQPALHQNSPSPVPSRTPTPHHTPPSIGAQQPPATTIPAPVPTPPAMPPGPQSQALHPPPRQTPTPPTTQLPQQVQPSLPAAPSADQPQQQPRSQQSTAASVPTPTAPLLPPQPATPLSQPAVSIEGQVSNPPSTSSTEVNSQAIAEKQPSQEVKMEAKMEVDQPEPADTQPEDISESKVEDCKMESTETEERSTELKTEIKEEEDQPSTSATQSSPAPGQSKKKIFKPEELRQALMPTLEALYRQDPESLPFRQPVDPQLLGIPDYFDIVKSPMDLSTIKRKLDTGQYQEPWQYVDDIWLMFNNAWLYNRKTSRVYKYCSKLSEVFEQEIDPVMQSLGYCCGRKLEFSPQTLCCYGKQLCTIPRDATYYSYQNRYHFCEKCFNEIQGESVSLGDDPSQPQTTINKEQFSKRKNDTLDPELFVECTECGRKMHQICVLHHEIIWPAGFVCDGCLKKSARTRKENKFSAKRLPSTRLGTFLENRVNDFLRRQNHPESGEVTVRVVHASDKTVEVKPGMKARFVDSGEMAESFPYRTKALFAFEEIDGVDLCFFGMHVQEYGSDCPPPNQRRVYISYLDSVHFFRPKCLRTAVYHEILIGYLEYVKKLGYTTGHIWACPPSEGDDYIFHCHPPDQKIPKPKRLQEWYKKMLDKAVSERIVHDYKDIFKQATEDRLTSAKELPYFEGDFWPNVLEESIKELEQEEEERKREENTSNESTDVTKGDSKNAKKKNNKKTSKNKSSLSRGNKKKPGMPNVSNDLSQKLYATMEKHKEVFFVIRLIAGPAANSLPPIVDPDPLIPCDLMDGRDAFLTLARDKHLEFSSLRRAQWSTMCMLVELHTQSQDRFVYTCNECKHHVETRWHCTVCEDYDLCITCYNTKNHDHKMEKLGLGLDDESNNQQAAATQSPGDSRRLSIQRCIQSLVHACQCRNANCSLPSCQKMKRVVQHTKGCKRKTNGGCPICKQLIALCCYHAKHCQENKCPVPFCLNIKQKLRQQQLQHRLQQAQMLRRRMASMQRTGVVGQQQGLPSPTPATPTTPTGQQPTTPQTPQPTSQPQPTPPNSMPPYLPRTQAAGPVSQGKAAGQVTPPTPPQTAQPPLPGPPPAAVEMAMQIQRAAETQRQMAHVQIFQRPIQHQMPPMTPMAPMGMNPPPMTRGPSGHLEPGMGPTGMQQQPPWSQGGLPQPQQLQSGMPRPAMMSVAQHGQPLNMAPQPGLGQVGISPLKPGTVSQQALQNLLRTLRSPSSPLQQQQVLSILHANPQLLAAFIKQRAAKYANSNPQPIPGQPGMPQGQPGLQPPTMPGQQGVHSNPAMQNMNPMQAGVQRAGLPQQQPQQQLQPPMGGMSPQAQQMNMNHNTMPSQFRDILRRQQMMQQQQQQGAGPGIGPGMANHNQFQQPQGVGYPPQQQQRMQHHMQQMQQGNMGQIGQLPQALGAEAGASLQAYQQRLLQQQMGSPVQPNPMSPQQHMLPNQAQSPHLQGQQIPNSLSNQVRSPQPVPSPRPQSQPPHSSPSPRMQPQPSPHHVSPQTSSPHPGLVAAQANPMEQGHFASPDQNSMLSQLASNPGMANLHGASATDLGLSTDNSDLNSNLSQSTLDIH
UniProt Q8N6T7: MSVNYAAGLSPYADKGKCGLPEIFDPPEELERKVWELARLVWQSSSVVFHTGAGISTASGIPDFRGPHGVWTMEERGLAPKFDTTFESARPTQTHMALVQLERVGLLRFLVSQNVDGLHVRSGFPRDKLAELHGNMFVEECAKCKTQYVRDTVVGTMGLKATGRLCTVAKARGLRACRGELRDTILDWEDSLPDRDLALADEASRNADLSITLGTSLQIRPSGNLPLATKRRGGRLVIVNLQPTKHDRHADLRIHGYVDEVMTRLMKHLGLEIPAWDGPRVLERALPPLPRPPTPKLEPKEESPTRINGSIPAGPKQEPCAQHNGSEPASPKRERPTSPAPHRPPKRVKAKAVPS
UniProt Q9NRC8: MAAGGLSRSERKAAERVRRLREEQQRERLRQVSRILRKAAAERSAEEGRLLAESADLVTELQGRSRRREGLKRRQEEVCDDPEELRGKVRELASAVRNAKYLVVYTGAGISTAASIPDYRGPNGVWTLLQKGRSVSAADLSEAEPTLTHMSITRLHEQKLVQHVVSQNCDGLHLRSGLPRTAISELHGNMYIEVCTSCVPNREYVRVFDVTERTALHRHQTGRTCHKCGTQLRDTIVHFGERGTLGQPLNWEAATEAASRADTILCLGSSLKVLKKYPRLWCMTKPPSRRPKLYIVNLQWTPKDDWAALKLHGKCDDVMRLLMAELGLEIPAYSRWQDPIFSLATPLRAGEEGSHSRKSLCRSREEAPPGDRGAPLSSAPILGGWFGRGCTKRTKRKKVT

T1: YTHDF1 (endogenous, HEK-293T cells) (human (endogenous in HEK-293T)) (UniProt Q9BYJ9)
T1 sequence: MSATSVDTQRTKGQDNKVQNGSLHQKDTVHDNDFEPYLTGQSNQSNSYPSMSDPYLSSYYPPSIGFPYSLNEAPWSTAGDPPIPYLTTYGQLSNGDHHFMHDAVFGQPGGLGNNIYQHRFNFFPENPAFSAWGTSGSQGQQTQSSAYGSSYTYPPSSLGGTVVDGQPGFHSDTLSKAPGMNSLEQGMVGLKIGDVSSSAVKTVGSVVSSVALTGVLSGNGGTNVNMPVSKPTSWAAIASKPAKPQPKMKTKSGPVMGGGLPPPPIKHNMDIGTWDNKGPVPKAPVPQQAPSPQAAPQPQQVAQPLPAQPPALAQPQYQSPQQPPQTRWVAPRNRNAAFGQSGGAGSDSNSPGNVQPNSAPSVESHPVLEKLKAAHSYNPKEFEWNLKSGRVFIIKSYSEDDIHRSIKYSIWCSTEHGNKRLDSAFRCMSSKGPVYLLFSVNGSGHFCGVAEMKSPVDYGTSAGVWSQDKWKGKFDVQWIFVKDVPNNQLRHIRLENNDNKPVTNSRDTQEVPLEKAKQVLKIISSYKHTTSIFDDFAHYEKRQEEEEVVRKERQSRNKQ

B1: Myc-Sirt2 (enzyme, UniProt Q8IXJ6 1-389)
chain: MAEPDPSHPLETQAGKVQEAQDSDSDSEGGAAGGEADMDFLRNLFSQTLSLGSQKERLLDELTLEGVARYMQSERCRRVICLVGAGISTSAGIPDFRSPSTGLYDNLEKYHLPYPEAIFEISYFKKHPEPFFALAKELYPGQFKPTICHYFMRLLKDKGLLLRCYTQNIDTLERIAGLEQEDLVEAHGTFYTSHCVSASCRHEYPLSWMKEKIFSEVTPKCEDCQSLVKPDIVFFGESLPARFFSCMQSDFLKVDLLLVMGTSLQVQPFASLISKAPLSTPRLLINKEKAGQSDPFLGMIMGLGGGMDFDSKKAYRDVAWLGECDQGCLALAELLGWKKELEDLVRREHASIDAQSGAGVPNPSTSASPKKSPPPAKDEARTTEREKPQ
B2: Myc-Sirt4 (enzyme, UniProt Q9Y6E7 29-314)
chain: IGLFVPASPPLDPEKVKELQRFITLSKRLLVMTGAGISTESGIPDYRSEKVGLYARTDRRPIQHGDFVRSAPIRQRYWARNFVGWPQFSSHQPNPAHWALSTWEKLGKLYWLVTQNVDALHTKAGSRRLTELHGCMDRVLCLDCGEQTPRGVLQERFQVLNPTWSAEAHGLAPDGDVFLSEEQVRSFQVPTCVQCGGHLKPDVVFFGDTVNPDKVDFVHKRVKEADSLLVVGSSLQVYSGYRFILTAWEKKLPIAILNIGPTRSDDLACLKLNSRCGELLPLIDPC

biological target: T1, YTHDF1 (endogenous, HEK-293T cells) (human (endogenous in HEK-293T)); test: co-IP

Molecule | binding
Myc-ATAT1 (from UniProt Q5SQI0 1-421) (enzyme) | no binding
Myc-P300 (from UniProt Q09472 1-2414) (enzyme) | no binding
Myc-Sirt6 (from UniProt Q8N6T7 1-355) (enzyme) | binds
Myc-Sirt7 (from UniProt Q9NRC8 1-400) (enzyme) | binds
B1 | binds
B2 | binds
